This is one part of the list. Single values are uncertain, as repeats are few or missing.
Each compound was assayed on MZ2-MEL (assay: cell count relative to DMSO control; melanoma cells; higher = more viable cells). Conditions: library dose: standard library concentration; 72 h.
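Note: cells treated in 1,536-well plates, then fixed and DAPI-stained, with nuclei counted from automated high-throughput microscope images.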

Compound	cell count [%]
C=CCNC1=C2C[C@@H](C)C[C@H](OC)[C@H](O)[C@@H](C)/C=C(\C)[C@H](OC(N)=O)[C@@H](OC)/C=C\C=C(/C)C(=O)NC(=CC1=O)C2=O [Tanespimycin] + NC(=O)Nc1cc(-c2cccc(F)c2)sc1C(=O)N[C@H]1CCCNC1 [AZD7762] (first compound 0.01 µM, partner dose 0.1 µM)	115
CS(=O)(=O)CCNCc1ccc(-c2ccc3ncnc(Nc4ccc(OCc5cccc(F)c5)c(Cl)c4)c3c2)o1 [lapatinib] + C=C(c1ccc(C(=O)O)cc1)c1cc2c(cc1C)C(C)(C)CCC2(C)C [Bexarotene] (first compound 4 µM, partner dose 10 µM)	51.5
CN1CCN(c2ccc3nc(-c4c(N)c5c(F)cccc5[nH]c4=O)[nH]c3c2)CC1 [Dovitinib] + Cn1cncc1[C@@](N)(c1ccc(Cl)cc1)c1ccc2c(c1)c(-c1cccc(Cl)c1)cc(=O)n2C [tipifarnib] (first compound 0.5 µM, partner dose 0.05 µM)	53.7
CS(=O)(=O)CCNCc1ccc(-c2ccc3ncnc(Nc4ccc(OCc5cccc(F)c5)c(Cl)c4)c3c2)o1 [lapatinib] + Cn1c(Nc2ccc(C(F)(F)F)cc2)nc2cc(Oc3ccnc(-c4ncc(C(F)(F)F)[nH]4)c3)ccc21 [CHIR265] (first compound 4 µM, partner dose 0.4 µM)	41.6
CS(=O)(=O)CCNCc1ccc(-c2ccc3ncnc(Nc4ccc(OCc5cccc(F)c5)c(Cl)c4)c3c2)o1 [lapatinib] + O=C(O)c1ccc2c(c1)nc(Nc1cccc(Cl)c1)c1ccncc12 [CX4945] (first compound 4 µM, partner dose 2 µM)	50.5
CNC(=O)c1cc(Oc2ccc(NC(=O)Nc3ccc(Cl)c(C(F)(F)F)c3)cc2)ccn1 [sorafenib] + COc1ccc2c(c1)CCC1C2CCC2(C)C(NCCCCCCN3C(=O)C=CC3=O)CCC12 [U73122] (first compound 2 µM, partner dose 2 µM)	93.4
CNC(=O)c1cc(Oc2ccc(NC(=O)Nc3ccc(Cl)c(C(F)(F)F)c3)cc2)ccn1 [sorafenib] + c1cc(-c2cnn3cc(-c4ccc(OCCN5CCCCC5)cc4)cnc23)ccn1 [Dorsomorphin] (first compound 2 µM, partner dose 2 µM)	74.3
C[C@@H](Oc1cc(-c2cnn(C3CCNCC3)c2)cnc1N)c1c(Cl)ccc(F)c1Cl [Crizotinib] + CC(C)CCN1c2nc(Nc3cc(F)c(O)c(F)c3)ncc2N(C)C(=O)C1C [BID1870] (first compound 1 µM, partner dose 1 µM)	108
C[C@@H](Oc1cc(-c2cnn(C3CCNCC3)c2)cnc1N)c1c(Cl)ccc(F)c1Cl [Crizotinib] + O=C(O)c1ccc2c(c1)nc(Nc1cccc(Cl)c1)c1ccncc12 [CX4945] (first compound 1 µM, partner dose 2 µM)	69.4
C[C@@H](Oc1cc(-c2cnn(C3CCNCC3)c2)cnc1N)c1c(Cl)ccc(F)c1Cl [Crizotinib] + CN(C)S(=O)(=O)c1ccc2c(c1)/C(=C/c1cc3c([nH]1)CCCC3)C(=O)N2 [SU6656] (first compound 1 µM, partner dose 2 µM)	91.8
CNC(=O)c1cc(Oc2ccc(NC(=O)Nc3ccc(Cl)c(C(F)(F)F)c3)cc2)ccn1 [sorafenib] + CC(=O)c1c(C)c2cnc(Nc3ccc(N4CCNCC4)cn3)nc2n(C2CCCC2)c1=O [palbociclib] (first compound 2 µM, partner dose 0.2 µM)	65.7
CNC(=O)c1cc(Oc2ccc(NC(=O)Nc3ccc(Cl)c(C(F)(F)F)c3)cc2)ccn1 [sorafenib] + C=CCn1c(=O)c2cnc(Nc3ccc(N4CCN(C)CC4)cc3)nc2n1-c1cccc(C(C)(C)O)n1 [MK1775] (first compound 2 µM, partner dose 0.1 µM)	129
CN1CCN(c2ccc3nc(-c4c(N)c5c(F)cccc5[nH]c4=O)[nH]c3c2)CC1 [Dovitinib] + CN(NC(=O)CC(=O)NN(C)C(=S)c1ccccc1)C(=S)c1ccccc1 [STA4783] (first compound 0.5 µM, partner dose 0.03 µM)	61.8
C[C@@H](Oc1cc(-c2cnn(C3CCNCC3)c2)cnc1N)c1c(Cl)ccc(F)c1Cl [Crizotinib] + Clc1ccc(Nc2nnc(Cc3ccncc3)c3ccccc23)cc1 [vatalanib] (first compound 1 µM, partner dose 10 µM)	66.4
C=CCNC1=C2C[C@@H](C)C[C@H](OC)[C@H](O)[C@@H](C)/C=C(\C)[C@H](OC(N)=O)[C@@H](OC)/C=C\C=C(/C)C(=O)NC(=CC1=O)C2=O [Tanespimycin] + CN(NC(=O)CC(=O)NN(C)C(=S)c1ccccc1)C(=S)c1ccccc1 [STA4783] (first compound 0.01 µM, partner dose 0.03 µM)	119
CS(=O)(=O)CCNCc1ccc(-c2ccc3ncnc(Nc4ccc(OCc5cccc(F)c5)c(Cl)c4)c3c2)o1 [lapatinib] + O=C(O)C(=O)Nc1sc2c(c1C(=O)O)CCNC2 [TCS401] (first compound 4 µM, partner dose 8.33333 µM)	91.4
CN1CCN(c2ccc3nc(-c4c(N)c5c(F)cccc5[nH]c4=O)[nH]c3c2)CC1 [Dovitinib] + CC1(C)NC(=O)N(c2ccc([N+](=O)[O-])c(C(F)(F)F)c2)C1=O [nilutamide] (first compound 0.5 µM, partner dose 5 µM)	67.7
CS(=O)(=O)CCNCc1ccc(-c2ccc3ncnc(Nc4ccc(OCc5cccc(F)c5)c(Cl)c4)c3c2)o1 [lapatinib] + C[C@@H]1CCN(C(=O)CC#N)C[C@@H]1N(C)c1ncnc2[nH]ccc12 [CP690550] (first compound 4 µM, partner dose 5 µM)	87.6
C[C@@H](Oc1cc(-c2cnn(C3CCNCC3)c2)cnc1N)c1c(Cl)ccc(F)c1Cl [Crizotinib] + C[C@@H]1CCN(C(=O)CC#N)C[C@@H]1N(C)c1ncnc2[nH]ccc12 [CP690550] (first compound 1 µM, partner dose 5 µM)	119
C[C@@H](Oc1cc(-c2cnn(C3CCNCC3)c2)cnc1N)c1c(Cl)ccc(F)c1Cl [Crizotinib] + NC(=O)Nc1cc(-c2cccc(F)c2)sc1C(=O)N[C@H]1CCCNC1 [AZD7762] (first compound 1 µM, partner dose 0.1 µM)	103
CN1CCN(c2ccc3nc(-c4c(N)c5c(F)cccc5[nH]c4=O)[nH]c3c2)CC1 [Dovitinib] + N#Cc1c(O)c2c(-c3ccc(-c4ccccc4O)cc3)csc2[nH]c1=O [A769662] (first compound 0.5 µM, partner dose 10 µM)	63.6
CN1CCN(c2ccc3nc(-c4c(N)c5c(F)cccc5[nH]c4=O)[nH]c3c2)CC1 [Dovitinib] + C#Cc1cccc(Nc2ncnc3cc(OCCOC)c(OCCOC)cc23)c1 [erlotinib] (first compound 0.5 µM, partner dose 4 µM)	41
CN1CCN(c2ccc3nc(-c4c(N)c5c(F)cccc5[nH]c4=O)[nH]c3c2)CC1 [Dovitinib] + O=C(O)C(=O)Nc1sc2c(c1C(=O)O)CCNC2 [TCS401] (first compound 0.5 µM, partner dose 8.33333 µM)	67.5
C[C@@H](Oc1cc(-c2cnn(C3CCNCC3)c2)cnc1N)c1c(Cl)ccc(F)c1Cl [Crizotinib] + Cn1nnc2c(C(N)=O)ncn2c1=O [temozolomide] (first compound 1 µM, partner dose 10 µM)	82.1
C=CCNC1=C2C[C@@H](C)C[C@H](OC)[C@H](O)[C@@H](C)/C=C(\C)[C@H](OC(N)=O)[C@@H](OC)/C=C\C=C(/C)C(=O)NC(=CC1=O)C2=O [Tanespimycin] + OCCn1cc(-c2cnc3nnn(Cc4ccc5ncccc5c4)c3n2)cn1 [PF04217903] (first compound 0.01 µM, partner dose 5 µM)	106
C[C@@H](Oc1cc(-c2cnn(C3CCNCC3)c2)cnc1N)c1c(Cl)ccc(F)c1Cl [Crizotinib] + C=CCn1c(=O)c2cnc(Nc3ccc(N4CCN(C)CC4)cc3)nc2n1-c1cccc(C(C)(C)O)n1 [MK1775] (first compound 1 µM, partner dose 0.1 µM)	99
C=CCNC1=C2C[C@@H](C)C[C@H](OC)[C@H](O)[C@@H](C)/C=C(\C)[C@H](OC(N)=O)[C@@H](OC)/C=C\C=C(/C)C(=O)NC(=CC1=O)C2=O [Tanespimycin] + OCc1c[nH]c2ccccc12 [Indole-3-carbinol] (first compound 0.01 µM, partner dose 4 µM)	102
CS(=O)(=O)CCNCc1ccc(-c2ccc3ncnc(Nc4ccc(OCc5cccc(F)c5)c(Cl)c4)c3c2)o1 [lapatinib] + NC(=O)Nc1cc(-c2cccc(F)c2)sc1C(=O)N[C@H]1CCCNC1 [AZD7762] (first compound 4 µM, partner dose 0.1 µM)	67.8
CN1CCN(c2ccc3nc(-c4c(N)c5c(F)cccc5[nH]c4=O)[nH]c3c2)CC1 [Dovitinib] + Nc1ncn([C@H]2C[C@H](O)[C@@H](CO)O2)c(=O)n1 [decitabine] (first compound 0.5 µM, partner dose 0.5 µM)	47.2

From the supplement of paper PMC4604168 (melanoma cell lines)
